Test results published in PMC9911399, “Two distinct binding modes provide the RNA-binding protein RbFox with extraordinary sequence specificity”.
Changes are numbered by the printed parent chain; changes in the protein carry UniProt numbers. The list shows a part of the results.

B1: UGCCCCC (DNA:RNA)
RNA: GGGAGACCGGAAUUCAGAUUGUCCUGCCCCCUUAAAUCCCGUCGUAGCCACCA
DNA 1: CAATCTGAATTCCGGTCTCCC
DNA 2: TGGTGGCTACGACGGGATT
B2: AUCUACA (DNA:RNA)
RNA: B1 RNA with U25A, G26U, C28U, C29A, C31A
DNA 1: CAATCTGAATTCCGGTCTCCC
DNA 2: TGGTGGCTACGACGGGATT
B3: UCUACAU (DNA:RNA)
RNA: B1 RNA with G26C, C27U, C28A, C30A, C31U
DNA 1: CAATCTGAATTCCGGTCTCCC
DNA 2: TGGTGGCTACGACGGGATT
B4: AAUACGU (DNA:RNA)
RNA: B1 RNA with U25A, G26A, C27U, C28A, C30G, C31U
DNA 1: CAATCTGAATTCCGGTCTCCC
DNA 2: TGGTGGCTACGACGGGATT
B5: CUCCACG (DNA:RNA)
RNA: B1 RNA with U25C, G26U, C29A, C31G
DNA 1: CAATCTGAATTCCGGTCTCCC
DNA 2: TGGTGGCTACGACGGGATT
B6: GCCUAUG (DNA:RNA)
RNA: B1 RNA with U25G, G26C, C28U, C29A, C30U, C31G
DNA 1: CAATCTGAATTCCGGTCTCCC
DNA 2: TGGTGGCTACGACGGGATT
B7: GUGAGGG (DNA:RNA)
RNA: GGGAGACCGGAAUUCAGAUUGUCCGUGAGGGUUAAAUCCCGUCGUAGCCACCA
DNA 1: CAATCTGAATTCCGGTCTCCC
DNA 2: TGGTGGCTACGACGGGATT
B8: GUUGUGG (DNA:RNA)
RNA: B7 RNA with G27U, A28G, G29U
DNA 1: CAATCTGAATTCCGGTCTCCC
DNA 2: TGGTGGCTACGACGGGATT
B9: ACGAGAG (DNA:RNA)
RNA: B7 RNA with G25A, U26C, G30A
DNA 1: CAATCTGAATTCCGGTCTCCC
DNA 2: TGGTGGCTACGACGGGATT
B10: ACGCGUG (DNA:RNA)
RNA: B7 RNA with G25A, U26C, A28C, G30U
DNA 1: CAATCTGAATTCCGGTCTCCC
DNA 2: TGGTGGCTACGACGGGATT
B11: CGCUACC (DNA:RNA)
RNA: B1 RNA with U25C, C28U, C29A
DNA 1: CAATCTGAATTCCGGTCTCCC
DNA 2: TGGTGGCTACGACGGGATT
B12: AAUAAGG (DNA:RNA)
RNA: B7 RNA with G25A, U26A, G27U, G29A
DNA 1: CAATCTGAATTCCGGTCTCCC
DNA 2: TGGTGGCTACGACGGGATT
B13: GCUCAGG (DNA:RNA)
RNA: B7 RNA with U26C, G27U, A28C, G29A
DNA 1: CAATCTGAATTCCGGTCTCCC
DNA 2: TGGTGGCTACGACGGGATT
B14: AGAUGCC (DNA:RNA)
RNA: B1 RNA with U25A, C27A, C28U, C29G
DNA 1: CAATCTGAATTCCGGTCTCCC
DNA 2: TGGTGGCTACGACGGGATT
B15: CACAUCC (DNA:RNA)
RNA: B1 RNA with U25C, G26A, C28A, C29U
DNA 1: CAATCTGAATTCCGGTCTCCC
DNA 2: TGGTGGCTACGACGGGATT
B16: AGAUACU (DNA:RNA)
RNA: B1 RNA with U25A, C27A, C28U, C29A, C31U
DNA 1: CAATCTGAATTCCGGTCTCCC
DNA 2: TGGTGGCTACGACGGGATT
B17: GAAUCAC (DNA:RNA)
RNA: B1 RNA with U25G, G26A, C27A, C28U, C30A
DNA 1: CAATCTGAATTCCGGTCTCCC
DNA 2: TGGTGGCTACGACGGGATT
B18: GAUAGAU (DNA:RNA)
RNA: B7 RNA with U26A, G27U, G30A, G31U
DNA 1: CAATCTGAATTCCGGTCTCCC
DNA 2: TGGTGGCTACGACGGGATT
B19: GCGUUCA (DNA:RNA)
RNA: B7 RNA with U26C, A28U, G29U, G30C, G31A
DNA 1: CAATCTGAATTCCGGTCTCCC
DNA 2: TGGTGGCTACGACGGGATT
B20: ACCACAA (DNA:RNA)
RNA: B1 RNA with U25A, G26C, C28A, C30A, C31A
DNA 1: CAATCTGAATTCCGGTCTCCC
DNA 2: TGGTGGCTACGACGGGATT
B21: CCCAUCA (DNA:RNA)
RNA: B1 RNA with U25C, G26C, C28A, C29U, C31A
DNA 1: CAATCTGAATTCCGGTCTCCC
DNA 2: TGGTGGCTACGACGGGATT
B22: CCACAGC (DNA:RNA)
RNA: B1 RNA with U25C, G26C, C27A, C29A, C30G
DNA 1: CAATCTGAATTCCGGTCTCCC
DNA 2: TGGTGGCTACGACGGGATT
B23: UGAAUUU (DNA:RNA)
RNA: B1 RNA with C27A, C28A, C29U, C30U, C31U
DNA 1: CAATCTGAATTCCGGTCTCCC
DNA 2: TGGTGGCTACGACGGGATT
B24: UGGUACU (DNA:RNA)
RNA: B1 RNA with C27G, C28U, C29A, C31U
DNA 1: CAATCTGAATTCCGGTCTCCC
DNA 2: TGGTGGCTACGACGGGATT
B25: UUUAGUA (DNA:RNA)
RNA: B7 RNA with G25U, G27U, G30U, G31A
DNA 1: CAATCTGAATTCCGGTCTCCC
DNA 2: TGGTGGCTACGACGGGATT
B26: GAACGAC (DNA:RNA)
RNA: B7 RNA with U26A, G27A, A28C, G30A, G31C
DNA 1: CAATCTGAATTCCGGTCTCCC
DNA 2: TGGTGGCTACGACGGGATT
B27: GAGGUCA (DNA:RNA)
RNA: B7 RNA with U26A, A28G, G29U, G30C, G31A
DNA 1: CAATCTGAATTCCGGTCTCCC
DNA 2: TGGTGGCTACGACGGGATT
B28: UUUUGGU (DNA:RNA)
RNA: B7 RNA with G25U, G27U, A28U, G31U
DNA 1: CAATCTGAATTCCGGTCTCCC
DNA 2: TGGTGGCTACGACGGGATT
B29: UACGCUU (DNA:RNA)
RNA: B1 RNA with G26A, C28G, C30U, C31U
DNA 1: CAATCTGAATTCCGGTCTCCC
DNA 2: TGGTGGCTACGACGGGATT
B30: GUCCUGA (DNA:RNA)
RNA: B7 RNA with G27C, A28C, G29U, G31A
DNA 1: CAATCTGAATTCCGGTCTCCC
DNA 2: TGGTGGCTACGACGGGATT
B31: UAUAAAU (DNA:RNA)
RNA: B7 RNA with G25U, U26A, G27U, G29A, G30A, G31U
DNA 1: CAATCTGAATTCCGGTCTCCC
DNA 2: TGGTGGCTACGACGGGATT

The binders below were run against T1, RBFOX1 RRM RbFoxmut (Fox-RRM*) (Homo sapiens, UniProt Q9NWB1 109-208, R118D;E147R;N151S;E152T) (assay: EMSA; HiTS-Eq, 1 nM pool, 10 min; buffer printed only for the single-RNA assays: 10 mM Tris pH 7.5, 150 mM NaCl, 3.4 mM EDTA, 0.001% NP-40, 30 C). Details: tags: His6 N-terminal (pET28a); label: 5' 32P.
T1 sequence: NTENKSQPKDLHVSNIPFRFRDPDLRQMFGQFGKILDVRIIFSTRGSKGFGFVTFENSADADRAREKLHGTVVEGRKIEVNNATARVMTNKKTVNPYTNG
Outline: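 These values rest on relative association constants, computed from read-count changes of each RNA species versus the control reaction and normalised to the cognate motif. Reads came from free RNA recovered by 8% native PAGE after purified RbFox RRM (wild type or mutant) at increasing concentrations was equilibrated for 10 min in 50 µL with 1 nM of a 5′-radiolabelled pool with 7 randomized nucleotides and DNA-annealed flanks.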
For B1, the binding signal was 0.0484 KA relative to UGCAUGU.
B2 was tested, and the binding signal was 0.0989 KA relative to UGCAUGU.
B3 was tested, and the binding signal was 0.0991 KA relative to UGCAUGU.
With B4 the binding signal was 0.118 KA relative to UGCAUGU.
With B5 the binding signal was 0.0931 KA relative to UGCAUGU.
In the case of B6, the binding signal is reported as 0.128 KA relative to UGCAUGU.
With B7 the binding signal was 0.0711 KA relative to UGCAUGU.
With B8 the binding signal was 0.104 KA relative to UGCAUGU.
B9 was tested, and the binding signal was 0.14 KA relative to UGCAUGU.
In the case of B10, the binding signal is reported as 0.159 KA relative to UGCAUGU.
With B11 the binding signal was 0.0756 KA relative to UGCAUGU.
In the case of B12, the binding signal is reported as 0.0882 KA relative to UGCAUGU.
B13 was tested, and the binding signal was 0.0833 KA relative to UGCAUGU.
B14 was tested, and the binding signal was 0.193 KA relative to UGCAUGU.
In the case of B15, the binding signal is reported as 0.0726 KA relative to UGCAUGU.
B16 was tested, and the binding signal was 0.0982 KA relative to UGCAUGU.
B17 was tested, and the binding signal was 0.172 KA relative to UGCAUGU.
In the case of B18, the binding signal is reported as 0.0816 KA relative to UGCAUGU.
With B19 the binding signal was 0.1 KA relative to UGCAUGU.
With B20 the binding signal was 0.0816 KA relative to UGCAUGU.
In the case of B21, the binding signal is reported as 0.133 KA relative to UGCAUGU.
With B22 the binding signal was 0.0892 KA relative to UGCAUGU.
In the case of B23, the binding signal is reported as 0.0646 KA relative to UGCAUGU.
For B24, the binding signal was 0.104 KA relative to UGCAUGU.
With B25 the binding signal was 0.144 KA relative to UGCAUGU.
In the case of B26, the binding signal is reported as 0.0905 KA relative to UGCAUGU.
With B27 the binding signal was 0.0901 KA relative to UGCAUGU.
B28 was tested, and the binding signal was 0.102 KA relative to UGCAUGU.
In the case of B29, the binding signal is reported as 0.0979 KA relative to UGCAUGU.
B30 was tested, and the binding signal was 0.112 KA relative to UGCAUGU.
In the case of B31, the binding signal is reported as 0.0469 KA relative to UGCAUGU.
